Common to all, as to experiment: Primary Screen for Target Class Profiling of Small Molecule Inhibitors of Methyltransferases
The target in assay [1] is Glycine N-methyltransferase (Homo sapiens) (UniProt Q14749). The conditions noted are these: purified enzyme, MTase-Glo SAH luminescence; measured here: GNMT inhibition; at 40 µM; stronger effect = lower value. Summed up: (§1)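 Each enzyme was reacted with SAM and its substrate, with compounds tested once at 40 uM; SAH formed was read by MTase-Glo luminescence.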
The target in assay [2] is Guanidinoacetate N-methyltransferase (Homo sapiens) (UniProt Q14353). The conditions noted are these: purified enzyme, MTase-Glo SAH luminescence; measured here: GAMT inhibition; at 40 µM; stronger effect = lower value. Summed up: as §1
In assay [3] the target is Histamine N-methyltransferase (Homo sapiens) (UniProt P50135). The conditions noted are these: purified enzyme, MTase-Glo SAH luminescence; measured here: HNMT inhibition; at 40 µM; stronger effect = lower value. Summed up: as §1
For assay [4], the target named is Nicotinamide N-methyltransferase (Homo sapiens) (UniProt P40261). Particulars: purified enzyme, MTase-Glo SAH luminescence; measured here: NNMT inhibition; at 40 µM; stronger effect = lower value. Put shortly:
as §1

Assay [5] concerns the target Phenylethanolamine N-methyltransferase (Homo sapiens) (UniProt P11086). The conditions noted are these: purified enzyme, MTase-Glo SAH luminescence; measured here: PNMT inhibition; at 40 µM; stronger effect = lower value. Put shortly:
as §1

The list shows a part of the results. These are further read-outs of the screen, such as a control signal, another cell line or another target. No call is given for them.
On the % scale 0 is the no-effect control and ±100 the full control effect.

For the compound `O=C(c1coc(COc2ccc(F)cc2)n1)N1CCC(c2ccc(F)cc2)C1` (stereo not drawn), the activity change, negative = inhibition in assay [1] is -5.2%; in assay [2] it was -1.73%; in assay [3] it was -2.18%; in assay [4], -13.7%; in assay [5], 7.38%.
For `CCc1ccc(CNC(=O)c2cc3n(n2)CC(C)(C(=O)NC2CCCC2)N(C)C3=O)cc1` (stereo not drawn), in that order: 1.54%, 1.85%, 6.54%, 2.07% and -2.23%.
Take `O=C1CCCC2=C1C(c1ncccc1Br)N=C(Nc1nc3ccccc3o1)N2` (stereo not drawn): the activity change, negative = inhibition in assay [2] is 6.73%; in assay [4], -2.44%; in assay [5], 8.14%.
For `Cn1ccnc1CN[C@@H]1C[C@H](CO)[C@@H](O)[C@H]1O`, the activity change, negative = inhibition is -7.21% in assay [1]; -15.3% in assay [2]; -4.99% in assay [3]; -13.4% in assay [4]; -13.1% in assay [5].
For `CN1C(=O)c2cc(C(=O)NCC3CCCO3)nn2CC1(C)C(=O)NC1CCCCCC1` (stereo not drawn), in that order: 2.19%, 0%, 2.66%, 7.36% and 2.6%.
For `CC(=O)N1CCN(C(=O)c2ccc3oc(-c4cccnc4C)nc3c2)CC1`, in that order: -7.01%, -8.14%, -4.66%, -16.5% and -10.7%.
For `COc1cccc(NC(=O)CCc2nnc3n(Cc4ccc(C)cc4)c(=O)c4ccccc4n23)c1`, in that order: -6.62%, 2.54%, -2.13%, -3.52% and -6.94%.
As to `CCOC(=O)c1ccccc1NC(=O)N1Cc2c(sc3c2CCN(C)C3)-n2cccc2C1CC` (stereo not drawn), the activity change, negative = inhibition in assay [1] is -6.7%; in assay [2] it was 4.74%; in assay [3], -1.12%; in assay [4], -5.59%; in assay [5], -0.059%.
For `O=C(NC1CCN(c2ccc3nnc(-c4ccccc4)n3n2)CC1)C1CCCC1`, in that order: -5.98%, -7.47%, -3.53%, -6.3% and -7.89%.
For `COc1cccc(CNC(=O)CCc2nnc3n(Cc4ccccc4)c(=O)c4ccccc4n23)c1`, in that order: -6.61%, 0.463%, 8.23%, 3.99% and 0.656%.
On the same counts, the results for `Cc1ccc(-c2ncc[nH]2)cc1NC(=O)c1ccc(OCc2ccccn2)cc1` are -7.03%, -4.87%, -9.06%, -25.7% and -12.2%.
As for `COc1ccccc1CNC(=O)C1c2c(n(C)c3ccccc23)SCC(=O)N1Cc1cccnc1` (stereo not drawn), the activity change, negative = inhibition in assay [1] is 12.6%; in assay [2], 0.755%; in assay [3] it was 8.69%; in assay [4], 8.37%; in assay [5], 9.68%.
For `COc1ccc([C@H]2CN(C(=O)C3CCN(C(=O)N(C)C)CC3)C[C@@H]2N)cc1`, in that order: -3%, -6.24%, -0.685%, -5.63% and -2.02%.
On the same counts, the results for `CN1C(=O)c2cc3ccccc3n2CC1(C)C(=O)NCC(=O)NCc1ccccc1Cl` (stereo not drawn) are -0.571%, 5.76%, 0.804%, 8.31% and -7.51%.
For `COc1cccc(N2C(=O)c3ccc(-c4ccco4)n3CC2(C)C(=O)NC2CCCC2)c1` (stereo not drawn), in that order: -2.87%, 3.08%, -0.9%, 1.35% and -1.32%.
Consider `CCN1C(=O)c2c(C(=O)NCCc3ccc(OC)c(OC)c3)ncn2CC1(C)C(=O)NC1CCCC1` (stereo not drawn), for which the activity change, negative = inhibition in assay [1] was -5.82%; in assay [2], 0%; in assay [3], 7.52%; in assay [4] it was -1.06%; in assay [5], 2.57%.
For the compound `CC1(C(=O)NCc2ccc(F)cc2)Cn2cnc(C(=O)Nc3ccc(F)cc3Cl)c2C(=O)N1C1CC1` (stereo not drawn), the activity change, negative = inhibition in assay [1] was determined as 3.19%; in assay [2], 1.73%; in assay [3], 13%; in assay [4], 2.51%; in assay [5] it was 11%.
For `COC(=O)C1=COC(OC2OC(CO)C(O)C(O)C2O)C2C(C)C(OC(=O)/C=C/c3ccc(O)cc3)C(O)C12` (stereo not drawn), in that order: -6.72%, -11.8%, 3.73%, -20.2% and -1.36%.
For `CCOc1cccc(C2c3cccn3-c3sc4c(c3CN2C(=O)NC(C)C)CCCC4)c1` (stereo not drawn), in that order: -5.78%, 3.2%, -5.56%, -9.13% and -1.06%.
For `CC1CCN(c2nc3c(S(=O)(=O)c4ccccc4)nnn3c3ccc(Cl)cc23)CC1`, in that order: -5.32%, 4.56%, -2.26%, -5.21% and -5.49%.
As to `CCc1ccccc1NS(=O)(=O)c1cc2c(cc1C)n(C)c(=O)n2C`, the activity change, negative = inhibition in assay [1] was -0.681%; in assay [2] it was 4.01%; in assay [3], -6.91%; in assay [4], -8.78%; in assay [5], -6.02%.
On the same counts, the results for `COc1cccc(-c2cc(C3CCN(S(=O)(=O)c4cccc(OC)c4)CC3)[nH]n2)c1` are 6.87%, 1.32%, 5.67%, 3.88% and 6.07%.
For `CCN(Cc1ccncc1)C(=O)c1coc(COc2cccc(C(F)(F)F)c2)n1`, in that order: -6.33%, -6.86%, -4.63%, -7.65% and 2.19%.
Take `Cc1noc(C)c1-c1cnc(Nc2ccc(CN3CCN(C)CC3)cc2)c2c1CCO2`: the activity change, negative = inhibition in assay [1] was -13.2%; in assay [2], -10.6%; in assay [3] it was -20.3%; in assay [4], -28.7%; in assay [5] it was -10.2%.
For `CCCC1c2ccc(C)n2CCN1C(=O)Nc1ccccc1C(=O)OC` (stereo not drawn), in that order: -3.16%, 2.62%, 0.999%, 2.08% and -0.132%.
On the same counts, the results for `Cc1nnsc1C(=O)N[C@H]1CCN(C(=O)c2ccco2)[C@H](C(=O)N[C@H](Cc2c[nH]c3ccccc23)C(N)=O)C1` are -0.836%, -0.378%, 2.47%, -0.537% and 1.87%.
On the same counts, the results for `Cc1ccccc1CN1CC(=O)N(Cc2cccc(F)c2)c2ccccc2S1(=O)=O` are -4.16%, -2.06%, -5.45%, -7% and -8.24%.
Turning to `CN1C(=O)c2cc(C(=O)NCCN3CCOCC3)nn2CC1(C)C(=O)NCc1ccc(F)cc1` (stereo not drawn), the activity change, negative = inhibition in assay [1] is 5.64%; in assay [2] it was 2.61%; in assay [3] it was 0.709%; in assay [4], 2.49%; in assay [5] it was 0.485%.
On the same counts, the results for `Cc1cc2[nH]c(=O)[nH]c2cc1S(=O)(=O)NCc1ccc2c(c1)OCO2` are 4.22%, 0%, 1.23%, -0.715% and -2.05%.

The record behind these values is PubChem BioAssay AID1745853 (National Center for Advancing Translational Sciences (NCATS), 2022).
